Molecules are shown by their SMILES. The campaign covered roughly 310,000 compounds. About 2,200 (0.71%) showed an effect of 50% or more. Effects have a minus sign here. The list shows a part of the results.

Sequence of human ether-à-go-go-related gene (hERG) potassium channel (Q12809 whole entry, looked up): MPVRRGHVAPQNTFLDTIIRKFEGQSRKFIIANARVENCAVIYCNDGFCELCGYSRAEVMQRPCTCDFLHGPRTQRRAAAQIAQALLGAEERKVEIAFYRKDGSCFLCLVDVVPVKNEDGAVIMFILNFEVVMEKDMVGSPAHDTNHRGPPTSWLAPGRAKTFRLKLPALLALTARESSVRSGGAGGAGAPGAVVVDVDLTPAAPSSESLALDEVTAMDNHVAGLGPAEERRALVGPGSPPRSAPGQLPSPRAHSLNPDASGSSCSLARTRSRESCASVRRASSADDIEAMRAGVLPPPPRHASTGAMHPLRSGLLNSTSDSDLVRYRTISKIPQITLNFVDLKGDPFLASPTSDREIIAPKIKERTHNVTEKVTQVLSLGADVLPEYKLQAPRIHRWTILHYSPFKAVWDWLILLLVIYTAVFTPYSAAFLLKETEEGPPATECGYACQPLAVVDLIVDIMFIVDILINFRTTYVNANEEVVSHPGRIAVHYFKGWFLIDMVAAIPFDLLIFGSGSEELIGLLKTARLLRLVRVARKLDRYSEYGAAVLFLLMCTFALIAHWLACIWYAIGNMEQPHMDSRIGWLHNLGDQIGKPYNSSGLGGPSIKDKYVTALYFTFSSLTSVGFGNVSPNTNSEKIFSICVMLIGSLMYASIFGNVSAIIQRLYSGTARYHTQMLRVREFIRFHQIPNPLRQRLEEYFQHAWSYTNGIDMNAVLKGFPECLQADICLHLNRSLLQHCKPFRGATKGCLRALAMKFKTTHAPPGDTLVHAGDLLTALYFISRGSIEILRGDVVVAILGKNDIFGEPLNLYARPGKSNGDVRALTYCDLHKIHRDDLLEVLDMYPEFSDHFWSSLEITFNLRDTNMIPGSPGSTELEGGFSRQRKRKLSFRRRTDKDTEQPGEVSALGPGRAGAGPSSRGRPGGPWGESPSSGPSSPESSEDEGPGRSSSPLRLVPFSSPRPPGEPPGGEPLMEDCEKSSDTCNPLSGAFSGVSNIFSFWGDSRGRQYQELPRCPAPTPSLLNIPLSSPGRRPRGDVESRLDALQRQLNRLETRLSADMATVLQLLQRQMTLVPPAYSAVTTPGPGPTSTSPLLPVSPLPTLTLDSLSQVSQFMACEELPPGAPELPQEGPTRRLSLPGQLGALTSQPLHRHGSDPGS

The experiment addresses human ether-à-go-go-related gene (hERG) potassium channel (human, UniProt Q12809). Description: primary screen, population patch clamp on CHO cells stably expressing hERG.
Regarding `COc1ccc(C(C)=O)cc1CSc1nc(C)cc(C)n1`, the “hERG current change (%, negative = inhibition) at 1uM” value came out at 10.8%.
With `O=c1c2c(nc3c(-c4cccc(Br)c4)c[nH]n13)CCCC2`, the “hERG current change (%, negative = inhibition) at 1uM” value was found to be 4.62%.
With `C/C(=N\NC(=O)Cc1c(C)[nH][nH]c1=O)c1ccc(Cl)c(Cl)c1` the figure was 12.3%.
As to `CCOc1ccc(C2=Nc3ccccc3C(c3ccc(N4CCOCC4)cc3)=NN2)cc1`, the “hERG current change (%, negative = inhibition) at 1uM” value is given as 8.07%.
Then `Cc1onc(-c2ccccc2Cl)c1C(=O)Nc1cccc2nsnc12`, with 8.96%; and `CC1CCN(C(=O)COC(=O)c2cccc(NS(=O)(=O)c3ccccc3)c2)CC1`, with 8.15%.
With `COC(=O)[C@]1(C)N[C@H](c2ccc(-c3ccc(F)cc3)cc2)[C@@H]2C(=O)N(C)C(=O)[C@@H]21.O=C(O)C(F)(F)F` the figure was 4.62%; with `Cc1ccc(C2/C(=C(\O)c3ccc4c(c3)OCCO4)C(=O)C(=O)N2Cc2cccnc2)cc1` (stereo not drawn), 9.79%.
Consider `O=C(COc1ccccc1)NCCc1cn2ccsc2n1`, for which the “hERG current change (%, negative = inhibition) at 1uM” value amounted to 12.3%.
As for `Cc1cccc(-c2nnc(SCC(=O)NC3CC3)n2C)c1`, the “hERG current change (%, negative = inhibition) at 1uM” value is recorded as 13.3%.
Then `CC(C)c1ccc(NC(=O)[C@@H](NC(=O)N2CC(=O)Nc3ccccc32)C(C)C)cc1`, with 7.02%; and `CC(=O)Nc1ccc(S(=O)(=O)Nc2ccc(Cl)nn2)cc1`, with 8.13%.
Then `Cc1c(C)n(Cc2ccc(Cl)cc2)c2ccc(C(=O)NCCCN3CCOCC3)cc12`, with 13.9%.
As to `O=C(/C=C/Nc1ccccc1F)c1ccc(Br)cc1`, the “hERG current change (%, negative = inhibition) at 1uM” value is reported as 10.1%.
Turning to `O=C(NC1CCCCCC1)c1cc(S(=O)(=O)N2CCOCC2)ccc1N1CCCCC1`, the “hERG current change (%, negative = inhibition) at 1uM” value was -7.91%.
In the case of `NC(=O)COc1cc2oc(=O)c3c(c2cc1Cl)CCCC3`, the “hERG current change (%, negative = inhibition) at 1uM” value was 16.9%.
Then `CC(C)(C)OC(=O)N1CCC(c2c(C(=O)N3CCN(C(=O)c4ccco4)CC3)cnn2-c2cccc(Cl)c2)CC1`, with 1.35%; and `CC(OC(=O)CN1C(=O)COc2ccccc21)C(=O)NCc1ccc(F)cc1` (stereo not drawn), with 1.96%.
Then `Cn1nc(-c2ccc(Cl)cc2)c2cc(C(=O)NC3CC3)sc21`, with 7.91%; and `CCOc1ccc(N2CC(C(=O)N3CCc4ccccc4C3)CC2=O)cc1` (stereo not drawn), with -67.1%; and `CC(=NCCC(c1ccccc1)c1ccccc1)c1c(O)n(C)c(=O)n(C)c1=O`, with 0.314%.
Consider `Cc1ccc(C2C3=C(CCCC3=O)Nc3c2c(C)nn3-c2ccccn2)o1` (stereo not drawn), for which the “hERG current change (%, negative = inhibition) at 1uM” value was found to be 14.4%.
Consider `C=CCn1c(SCC(=O)N2CCN(CCO)CC2)nc2sc3c(c2c1=O)CCC3`, for which the “hERG current change (%, negative = inhibition) at 1uM” value is reported as -0.527%.
On to `Cc1ccc2c(c1)N(C(=O)CCC(=O)NCCCN1CCC(Cc3ccccc3)CC1)CCO2`, for which the “hERG current change (%, negative = inhibition) at 1uM” value was -78.7%.
Take `Cc1ccc2oc(=O)c3cnn(CC(=O)N4CCCc5ccccc54)c3c2c1`: the “hERG current change (%, negative = inhibition) at 1uM” value is 4.39%.
`CCN(CC(=O)Nc1ccc(OC)cc1)C(=O)c1cc(S(=O)(=O)N2CCOCC2)ccc1N1CCCC1`: the “hERG current change (%, negative = inhibition) at 1uM” value is recorded as 6.36%.
Turning to `COc1cc(-c2nnc(SCC(=O)NC3CCS(=O)(=O)C3)o2)cc(OC)c1OC` (stereo not drawn), the “hERG current change (%, negative = inhibition) at 1uM” value is 11.8%.
With `CN(C(=O)/C=C/c1ccc(F)cc1)C1CCCCC1` the figure was 8.85%; with `COc1ccccc1NC(=O)N1CCC(NC(=O)C2CCCCC2)CC1`, 13.1%.
Take `COc1ccc(CCN=Cc2ccc(O)cc2)cc1OC`: the “hERG current change (%, negative = inhibition) at 1uM” value was found to be 16.3%.
With `NS(=O)(=O)c1ccc(NC(=O)COC(=O)COc2ccc(Br)cc2)cc1` the figure was 9.9%; with `COc1ccc(OC)c(NC(=O)c2c(NC(=O)CCC(=O)O)sc3c2CCCCC3)c1`, 13.6%; with `COc1cccc(OC)c1OCCCCN1CCC(Cc2ccccc2)CC1.O=C(O)C(=O)O`, -78.6%.
Consider `Cc1sc2ncnc(SCC(=O)NNC(=O)COc3cccc4ccccc34)c2c1C`, for which the “hERG current change (%, negative = inhibition) at 1uM” value is reported as 4.07%.
As to `CCOc1ccc(NC(=S)N2CCN(S(=O)(=O)c3ccccc3)CC2)cc1`, the “hERG current change (%, negative = inhibition) at 1uM” value came to 2.68%.
With `CC(=O)NC(=S)Nc1ccc(N2CCOCC2)c(S(=O)(=O)Nc2cc(Cl)ccc2Cl)c1`, the “hERG current change (%, negative = inhibition) at 1uM” value was 6.2%.
With `O=C1NC2=C(CCc3ccccc32)C(c2ccc(Br)cc2)N1` (stereo not drawn) the figure was -1.05%.
In the case of `COc1ccc2[nH]c(=O)c(CN(Cc3ccc4c(c3)OCO4)C(C)=O)cc2c1`, the “hERG current change (%, negative = inhibition) at 1uM” value is on record as -2.67%.
On to `NC(=O)CSc1nnc(-c2cnccn2)n1-c1ccccc1`, for which the “hERG current change (%, negative = inhibition) at 1uM” value is listed as 3.73%.
Consider `Cc1c(O)c(CN2CCCCC2)cc2c1oc(=O)c1ccccc12`, for which the “hERG current change (%, negative = inhibition) at 1uM” value was found to be 11.7%.
Consider `CC1(C)c2ccccc2N2CCC(=O)NC21/C=C/c1ccco1` (stereo not drawn), for which the “hERG current change (%, negative = inhibition) at 1uM” value turned out to be 12.7%.
With `CSc1nc(N)nc(C2CC2)n1`, the “hERG current change (%, negative = inhibition) at 1uM” value is -2.75%.
In the case of `Cc1ccccc1OCCn1c(=O)oc2ccccc21`, the “hERG current change (%, negative = inhibition) at 1uM” value came to 5.2%.
Then `CCOC(=O)[C@@H]1[C@H]2COc3ccc(Br)cc3[C@H]2N2C(=O)N(c3ccc(Cl)cc3)C(=O)[C@@]12C`, with 16.5%.
As for `Cl.Cn1cccc1CNCCc1ccc(F)cc1`, the “hERG current change (%, negative = inhibition) at 1uM” value is reported as 6.23%.
Regarding `O=C(Nc1ccccc1-c1ccccc1)c1ccc(=O)[nH]n1`, the “hERG current change (%, negative = inhibition) at 1uM” value stood at 4.54%.
For `CCCc1cc(=O)[nH]c(SCC(=O)Nc2nc3ccc(OCC)cc3s2)n1`, the “hERG current change (%, negative = inhibition) at 1uM” value is listed as 13.9%.
`O=S(NCc1ccccc1)C12CC3CC(CC(C3)C1)C2` (stereo not drawn): the “hERG current change (%, negative = inhibition) at 1uM” value was determined as 11.9%.
With `O=C(NC1CCCCC1)c1cc2ccccc2cc1O`, the “hERG current change (%, negative = inhibition) at 1uM” value is given as -4.58%.
Consider `Cc1ccc(-n2nnnc2SCC(=O)NC2CCCc3ccccc32)c(C)c1` (stereo not drawn), for which the “hERG current change (%, negative = inhibition) at 1uM” value came to 3.18%.
On to `CC1CCN(S(=O)(=O)c2cccc(C(=O)NCc3cccs3)c2)CC1`, for which the “hERG current change (%, negative = inhibition) at 1uM” value is recorded as -2.23%.
With `O=C(OCC(=O)N1CCN(C(=O)c2ccco2)CC1)c1ccccc1Cc1ccccc1`, the “hERG current change (%, negative = inhibition) at 1uM” value is reported as -14.2%.
With `CCC(CC)c1nnc(NC(=O)CS(=O)(=O)Cc2ccccc2)s1`, the “hERG current change (%, negative = inhibition) at 1uM” value is given as 6.26%.
Regarding `O=C(/C=C/c1ccccc1[N+](=O)[O-])NC1CCCC1`, the “hERG current change (%, negative = inhibition) at 1uM” value came to 2.89%.
For `OCC1(Cc2ccccc2)CCCN(Cc2c[nH]c3ccccc23)C1` (stereo not drawn), the “hERG current change (%, negative = inhibition) at 1uM” value came out at 8.42%.
As for `O=C(Nc1cccc([N+](=O)[O-])c1)C1COc2ccccc2O1` (stereo not drawn), the “hERG current change (%, negative = inhibition) at 1uM” value is given as -14%.
On to `CCCCCOc1ccc(/C=c2\sc3nc(=O)c(-c4ccccc4)nn3c2=O)cc1OC`, for which the “hERG current change (%, negative = inhibition) at 1uM” value worked out at 2.97%.
For the compound `CC(NC(=O)COc1ccc([N+](=O)[O-])cc1)c1ccccc1` (stereo not drawn), the “hERG current change (%, negative = inhibition) at 1uM” value was -13.1%.
Then `Cc1cccc(NC(=O)C2CCN(S(=O)(=O)c3c(C)c(C)cc(C)c3C)CC2)n1`, with 10.2%.
On to `Cc1ccc(C)c(-n2c(SCC(=O)NC(C(=O)O)C(C)C)nnc2-c2cccc(Cl)c2)c1` (stereo not drawn), for which the “hERG current change (%, negative = inhibition) at 1uM” value amounted to 6.28%.
Regarding `COc1nn(-c2ccccc2)c(=O)c(Cl)c1Cl`, the “hERG current change (%, negative = inhibition) at 1uM” value worked out at 14.4%.
Turning to `COc1ccc(CNc2cc(C)ccn2)c(O)c1`, the “hERG current change (%, negative = inhibition) at 1uM” value turned out to be 5.09%.
In the case of `CCc1ccc(C(=O)C[n+]2cccc3cc(OC)ccc32)cc1.[Br-]`, the “hERG current change (%, negative = inhibition) at 1uM” value is given as 6%.
With `O=C(Cn1cnc2sc3c(c2c1=O)CCCC3)NCC(=O)Nc1c(F)cc(F)cc1Br` the figure was 11.1%; with `COc1ccccc1NC(=O)CCc1nc(-c2cccs2)no1`, -2.71%.
With `CC1CCCCN1CC(O)c1c[nH]c2ccccc12` (stereo not drawn) the figure was 12.2%; with `CCCC(=O)NC(=S)N1CCN(c2ccc([N+](=O)[O-])cc2)CC1`, -5.98%; with `O=C(NCCC(=O)N1CCC2(CC1)NCCc1[nH]cnc12)c1cccc(Br)c1`, 3.97%.
Turning to `COc1ccc(C(=O)N/N=C2\SCC(=O)N2Cc2ccc3c(c2)OCO3)c(OC)c1`, the “hERG current change (%, negative = inhibition) at 1uM” value came out at 7.32%.
Regarding `CC(=O)Nc1ccccc1C(=O)C(=O)Nc1cccc(C(=O)N2CCC3(CC2)OCCO3)c1`, the “hERG current change (%, negative = inhibition) at 1uM” value turned out to be 6.83%.
Consider `Cc1ccc(NC(=O)CCN2C(=O)C3CC=CCC3C2=O)cc1Cl` (stereo not drawn), for which the “hERG current change (%, negative = inhibition) at 1uM” value came out at 6.28%.
With `C=CCN1C(=O)C2(OCCCO2)c2cccc(Cl)c21` the figure was 19.9%.
Regarding `Nc1ccc(-c2nc3cc([N+](=O)[O-])ccc3o2)cc1`, the “hERG current change (%, negative = inhibition) at 1uM” value is 10%.
For the compound `CCOc1ccc(C(=O)COC(C)=O)cc1`, the “hERG current change (%, negative = inhibition) at 1uM” value turned out to be 9.74%.
`CSc1ncc(Cl)c(C(=O)Nc2nnc(SC/C=C/c3ccccc3)s2)n1`: the “hERG current change (%, negative = inhibition) at 1uM” value amounted to 4.26%.
With `O=C(NCc1ccco1)c1ccc(Cn2c(=O)c3sccc3n(Cc3ccc(F)cc3)c2=O)cc1`, the “hERG current change (%, negative = inhibition) at 1uM” value stood at 12.9%.
For `COc1ccc(C2(c3cccc(O)c3OC)CCN(C(C)=O)CC2)cc1O`, the “hERG current change (%, negative = inhibition) at 1uM” value worked out at 17.8%.
For `COc1ccc(C2COc3cc(O)ccc3C2)c(OC)c1O` (stereo not drawn), the “hERG current change (%, negative = inhibition) at 1uM” value came out at 1.75%.
With `CC(=O)Nc1ccc(NC(=S)NC(=O)c2ccc([N+](=O)[O-])cc2)cc1` the figure was 11%.
Consider `O=C(Cc1c(F)cccc1Cl)Nc1ccon1`, for which the “hERG current change (%, negative = inhibition) at 1uM” value was -1.31%.
Turning to `COC(=O)NCCOC(=O)N(O)c1ccc(Br)cc1`, the “hERG current change (%, negative = inhibition) at 1uM” value came to 15.2%.
On to `Cc1cc(C)n2c(Br)c(CSc3nc4ccccc4s3)nc2n1`, for which the “hERG current change (%, negative = inhibition) at 1uM” value is -19.3%.
Then `Cc1cccc(NC(=O)CSc2nc(COc3ccccc3)nc3ccccc23)c1C`, with 11.5%.
For the compound `Cc1ccc(OCC(=O)NCCCNC(=O)c2ccccn2)cc1C`, the “hERG current change (%, negative = inhibition) at 1uM” value was 8.1%.
As for `CC1(C)Oc2ccc3ccc(=O)oc3c2/C(=C/Nc2ccccc2)C1=O`, the “hERG current change (%, negative = inhibition) at 1uM” value is on record as 11.8%.
Consider `CSc1nc(-c2ccc(Cl)cc2Cl)[nH]c(=O)c1C#N`, for which the “hERG current change (%, negative = inhibition) at 1uM” value is given as 5.2%.
With `CCOc1ccccc1NC(=O)c1ccc2[nH]c(C)c(C)c2c1` the figure was 14.1%.

The values above are taken from publication PMC4336329 (PLoS ONE, 2015).
